The supplement of paper PMC6135742
Where “and” joins values, the source holds several entries; their conditions need not be identical. Identical values can stand only once. Counter-ions that a name gives are not always drawn. ± gives the standard deviation of the averaged measurements. Whole data set: some 2,600 compounds, median “MBP+ mature oligodendrocyte number relative to DMSO vehicle control” near -0.34, cut for the highest 2% near 13. Some of the results follow.

System: jimpy (Plp1 jimpy) mouse iPSC-derived oligodendrocyte progenitor cells
Assay: MBP+ mature oligodendrocyte number relative to DMSO vehicle control (SDs above negative control mean); higher = more surviving jimpy oligodendrocytes (rescue)
Settings: 10 µM; 3 days
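Further: 10 µM single dose with 3-day oligodendrocyte differentiation.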

| SMILES | MBP+ mature oligodendrocyte number |
| --- | --- |
| C[C@]12CCC(=O)C=C1CC[C@@H]1[C@@H]2CC[C@@]2(C)[C@H]1CC[C@]2(O)C(=O)CO [Cortexolone] | 0.431 |
| COC(=O)C1=C(C)NC(C)=C(C(=O)OC(C)(C)CN(C)CCC(c2ccccc2)c2ccccc2)C1c1cccc([N+](=O)[O-])c1 (stereo not given) [Lercanidipine hydrochloride hemihydrate] | < -3.34 |
| O=C(Nc1cccnc1)c1cc(-c2ccnc(F)c2)ccc1OCc1ccccc1 | -0.282 |
| COc1cc2ncnc(Nc3cccc(Br)c3)c2cc1OC | -1.77 |
| COc1ccc(Cl)cc1NC(=O)Nc1cc(C)nc2ccccc12 | -4.52 |
| CN(C)CCC(c1ccc(Br)cc1)c1ccccn1 (stereo not given) [Brompheniramine hydrogen maleate] | -2.74 |
| COc1ccccc1N1CCN(CCCNc2c(C)c(=O)n(C)c(=O)n2C)CC1 [Urapidil, 5-Methyl-] | -0.354 |
| O=C1CC[C@@H](C(=O)N2CSC[C@H]2C(=O)O)N1 [Pidotimod] | 1.61 |
| Oc1c(Cl)cc(Cl)c2cccnc12 [Chloroxine] | -2.36 |
| c1ccc(-c2ccc(C(c3ccccc3)n3ccnc3)cc2)cc1 (stereo not given) [Bifonazole] | 52.3 |
| Nc1nccc(Oc2ccc(NC(=O)c3c[nH]cc(-c4ccc(F)cc4)c3=O)cc2F)c1Cl | 7.17 |
| C[C@H]1[C@H](C)CC[C@]2(C(=O)O)CC[C@]3(C)C(=CC[C@@H]4[C@@]5(C)CC[C@H](O)C(C)(C)[C@@H]5CC[C@]43C)[C@H]12 [Ursolic Acid] | -4.53 |
| O=C(c1ccc(F)cc1)C1CCN(CCn2c(=O)[nH]c3ccccc3c2=O)CC1 [Ketanserin] | -1.28 |
| O=C(c1ccc(F)cc1)C1CCN(CCn2c(=O)[nH]c3ccccc3c2=O)CC1 [Ketanserin tartrate] | -0.568 |
| NC(=O)Nc1cc(-c2cccc(F)c2)sc1C(=O)N[C@H]1CCCNC1 | < -5.15 |
| CCN(CC)C(=O)c1ccc(O)c(OC)c1 [Vanillic acid diethylamide] | -3.84 |
| NC1(C(=O)O)CC1 [1-Aminocyclopropanecarboxylic acid hydrochloride] | -1.73 |
| O=C1NC(=O)c2cc(Nc3ccccc3)c(Nc3ccccc3)cc21 | -2.51 |
| O=C(O)CCc1ccc(NCc2cccc(Oc3ccccc3)c2)cc1 | 2.04 ± 2.8 |
| CCCOc1ccc2[nH]c(NC(=O)OC)nc2c1 [Oxibendazole] | -4.34 |
| O=C(CCCCCN1CCN(c2ccccc2-c2ccccc2)CC1)NC1CCCc2ccccc21 (stereo not given) [LP 12 hydrochloride hydrate] | -2.39 |
| CSC(=N)N [S-Methylisothiourea hemisulfate] | 0.0294 |

| SMILES | MBP+ mature oligodendrocyte number |
| --- | --- |
| CC(C)S(=O)(=O)N[C@H]1CCOC[C@@H]1c1ccc(-c2ccc(C#N)s2)cc1 | -3.15 |
| CCS(=O)(=O)N1CC(CC#N)(n2cc(-c3ncnc4[nH]ccc34)cn2)C1 | 0.342 |
| Cl.N[C@@H](CCC(=O)O)C(=O)O [L-Glutamic acid hydrochloride] | -0.701 |
| O=C1NCC2(CCN(CCc3ccccc3)CC2)O1 [Fenspiride hydrochloride] | 10.5 |
| O=C1NCC2(CCN(CCc3ccccc3)CC2)O1 [Fenspiride HCl] | 21.6 |
| Clc1ccc2c(c1)CCc1cccnc1C2=C1CCNCC1 [Desloratadine] | -5.93 |
| Cc1cnc(Nc2ccc(OCCN3CCCC3)cc2)nc1Nc1cccc(S(=O)(=O)NC(C)(C)C)c1 | < -6.01 |
| Cn1ncnc1[C@H]1c2n[nH]c(=O)c3cc(F)cc(c23)N[C@@H]1c1ccc(F)cc1 | -4.41 |
| CCCNC(=O)NS(=O)(=O)c1ccc(Cl)cc1 [Chlorpropamide] | 0.796 ± 2.8 |
| CCN(CC)C(C)CN1c2ccccc2Sc2ccccc21 (stereo not given) [Ethopropazine hydrochloride] | -3.46 |
| O=C(Cc1ccccc1)Nc1nnc(CCSCCc2nnc(NC(=O)Cc3ccccc3)s2)s1 | 0.502 |
| COc1ccc(-c2nc(N3CCOCC3)c3sc(CN(C)c4ncc(C(=O)NO)cn4)cc3n2)cn1 | < -6.01 |
| COc1cc(-c2ncn(/C=C\C(=O)OC(C)C)n2)cc(C(F)(F)F)c1 | -6.27 |
| N=C(N)NCCCCNC(=N)N [Arcaine sulfate] | -1.45 |
| CO[C@H]1/C=C/O[C@@]2(C)Oc3c(C)c(O)c4c(O)c(c5c(nc6cc(C)ccn65)c4c3C2=O)NC(=O)/C(C)=C\C=C\[C@H](C)[C@H](O)[C@@H](C)[C@@H](O)[C@@H](C)[C@H](OC(C)=O)[C@@H]1C [Rifaximin] | 1.96 |
| Clc1cccc(Cl)c1NC1=NCCN1 [Clonidine HCl] | -0.892 |
| Clc1cccc(Cl)c1NC1=NCCN1 [Clonidine hydrochloride] | -0.786 |
| CN1CCN(C2Cc3ccccc3Sc3ccc(Cl)cc32)CC1 (racemic) [(±)-Octoclothepin maleate] | -3.62 |
| C[C@]12C=CC(=O)N[C@@H]1CC[C@@H]1[C@@H]2CC[C@]2(C)[C@@H](C(=O)Nc3cc(C(F)(F)F)ccc3C(F)(F)F)CC[C@@H]12 [Dutasteride] | 2.99 |
| CCCCCCCCCCCCCCCC(=O)OC[C@H](O)[C@H]1OC(=O)C(O)=C1O [L-Ascorbyl 6-palmitate] | -1.84 |
| COc1ccc(C2(O)OC(=O)C(c3ccc4c(c3)OCO4)=C2Cc2cc(OC)c(OC)c(OC)c2)cc1 (stereo not given) | 1.07 |
| Cc1csc(-c2nnc(Nc3ccc(Oc4ncccc4-c4ccnc(N)n4)cc3)c3ccccc23)c1 | -2.2 |

| SMILES | MBP+ mature oligodendrocyte number |
| --- | --- |
| Nc1nc2c(ncn2COC(CO)CO)c(=O)[nH]1 [Ganciclovir] | 0.369 ± 1.4 |
| NCCCCCC(=O)O | -0.287 |
| CC(C)CCNC(=O)[C@H](CC(C)C)NC(=O)[C@H]1O[C@@H]1C(=O)O [Loxistatin Acid (E-64C)] | -1.46 |
| c1ccc2c(CCNc3ccc(Nc4ccncc4)cc3)c[nH]c2c1 | < -6.7 |
| COc1ccc2c(Oc3ccc(NC(=O)c4c(C)n(CC(C)(C)O)n(-c5ccccc5)c4=O)nc3)ccnc2c1 | -1.01 |
| COc1c(C)cnc(Cn2cnc3c(Cl)nc(N)nc32)c1C | < -6.7 |
| Cc1nc2c([nH]1)-c1ccccc1N(C(=O)c1ccc(NC(=O)c3ccccc3-c3ccccc3)cc1)CC2 [Conivaptan HCl] | 1.07 |
| CNCCc1ccccn1 [Betahistine 2HCl] | 1.93 |
| CNCc1ccc(C)c(NC(=O)c2ccc(Nc3nc(-c4ccccc4)c4ccccc4n3)cc2)c1 | < -6.35 |
| O=C1Nc2ccc(Cl)cc2[C@@](C#CC2CC2)(C(F)(F)F)O1 [Efavirenz] | 2 |
| Nc1ccc(C(=O)O)c(O)c1 [Sodium 4-Aminosalicylate] | -0.861 |
| COc1cc(CCc2cc(NC(=O)c3ccc(N4CC(C)NC(C)C4)cc3)n[nH]2)cc(OC)c1 (stereo not given) | < -6.01 |
| O=C(O)c1ccccc1Nc1cccc(C(F)(F)F)c1 [Flufenamic acid] | 1.25 |
| O=C(O)Cn1nnc(-c2cc(N3CCC(Oc4cc(F)ccc4Br)CC3)no2)n1 | 4.3 |
| c1ccc(-c2nn3c(c2-c2ccnc4cc(OCCN5CCOCC5)ccc24)CCC3)nc1 | -2.59 |
| O=C1O[C@H]([C@@H](O)CO)C(O)=C1O [Vitamin C] | 0.66 |
| Clc1ccc(C(c2ccccc2Cl)C(Cl)Cl)cc1 (stereo not given) [Mitotane] | -0.287 |
| Cc1cccc(C)c1OCC(=O)N[C@@H](Cc1ccccc1)[C@@H](O)C[C@H](Cc1ccccc1)NC(=O)[C@H](C(C)C)N1CCCNC1=O [Lopinavir] | -1.99 |
| NS(=O)(=O)c1nn2cc(-c3ccccc3)nc2s1 | -3.3 |
| Nc1ccc(/N=N/c2ccccc2)c(N)n1 [Phenazopyridine HCl] | -2.55 |
| CCC(=O)O[C@]1(C(=O)SCF)[C@H](C)C[C@H]2[C@@H]3C[C@H](F)C4=CC(=O)C=C[C@]4(C)[C@@]3(F)[C@@H](O)C[C@@]21C [Fluticasone propionate] | 8.9 |
| Cc1[nH]nc2ccc(-c3cncc(OC[C@@H](N)Cc4ccccc4)c3)cc12 | < -6.01 |

| SMILES | MBP+ mature oligodendrocyte number |
| --- | --- |
| NCCCS(=O)(=O)O [3-Amino-1-propanesulfonic acid sodium] | -1.14 |
| CC(C)[C@H](O)C(=O)N[C@@H](C)C(=O)N[C@@H]1C(=O)N(C)CCc2ccccc21 | 0.343 |
| CN(C)CCCc1cc(C(=O)Nc2ccc(-c3ccncc3)cc2)ccc1O | -2.53 |
| CC(C)c1cnn2c(NCc3ccccc3)cc(NCCCCCCN)nc12 | < -5.15 |
| NC1CONC1=O (racemic) [DL-Cycloserine] | 0.353 |
| O=S(=O)(c1cccc2cnccc12)N1CCCNCC1 [Fasudil (HA-1077) HCl] | -0.377 |
| COc1cc2nc(N3CCCN(C)CC3)nc(NC3CCN(Cc4ccccc4)CC3)c2cc1OC | < -3.85 and -4.64 |
| Cc1c(C(=O)N2CCOc3ccc(-c4ccc(N)nc4)cc3C2)ccc(S(C)(=O)=O)c1F | -0.945 |
| OC[C@H]1NC[C@@H](O)[C@@H]1O [1,4-Dideoxy-1,4-imino-D-arabinitol] | 1.55 |
| Cc1nc2c([nH]1)c(=O)n(C)c(=O)n2Cc1ccco1 [Furafylline] | 2.07 |
| CC(NCCc1ccc(O)cc1)C(O)c1ccc(O)cc1 (stereo not given) [Ritodrine HCl] | -0.164 |
| CC(NCCc1ccc(O)cc1)C(O)c1ccc(O)cc1 (stereo not given) [Ritodrine hydrochloride] | 1.15 |
| CCC1(C)CC(=O)NC1=O (stereo not given) [Ethosuximide] | 1.6 |
| CC(C)(O)CC(=O)NCCn1ccc2ncnc(Nc3ccc(Oc4cccc(C(F)(F)F)c4)c(Cl)c3)c21 | 5.98 |
| C[C@H](Nc1ncnc2nc[nH]c12)c1cc2cccc(Cl)c2c(=O)n1-c1ccccc1 | -4.92 |
| N#CC[C@H](C1CCCC1)n1cc(-c2ncnc3[nH]ccc23)cn1 | 2.47 |
| COc1cc(CNC(=O)CCCCCCC(C)C)ccc1O [Dihydrocapsaicin] | -2.68 |
| CCCc1nn(C)c2c(=O)[nH]c(-c3cc(S(=O)(=O)N4CCN(C)CC4)ccc3OCC)nc12 [Sildenafil citrate salt] | 0.156 |
| CCCc1nn(C)c2c(=O)[nH]c(-c3cc(S(=O)(=O)N4CCN(C)CC4)ccc3OCC)nc12 [Sildenafil Citrate] | 3.77 |
